Test results taken from the supplement of paper PMC12645437, “Orthogonal IMiD-Degron Pairs Induce Selective Protein Degradation in Cells” (ACS Chemical Biology, 2025).
Some of the results follow.

target: no compound (DMSO); assay: log2 fold change of degron read counts, EGFP-low vs EGFP+ sorted cells; higher = lower degron-EGFP level without compound (poor expression or instability); conditions: compound: DMSO control; 18 h
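Also: jurkat cells carrying a lentiviral library of mutant zinc finger degrons fused to EGFP plus mCherry, mCherry+ cells FACS sorted, degron abundance counted by next-generation sequencing.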

Sequence	log2 fold change of degron read counts
FRCDICGATFTQKGNLLRHIKL	-2.13
LCCPICGFNCTQKGNLLRHIKL	0.637
FYCEICGHLFTQKGNLLRHIKL	-0.184
FFCNQCGAEFTQKGNLLRHIKL	-0.213
FLCPQCGAMFTQKGNLLRHIKL	0.0354
FYCEQCGAPFTQKGNLLRHIKL	-0.624
FQCDICGAEFTQKGNLLRHIKL	-0.842
FDCSVCGHFFTQKGNLLRHIKL	1.66
FRCEICGRTFTQKGNLLRHIKL	-1.72
FDCPICGHYFTQKGNLLRHIKL	-0.442
FFCNQCGALFTQKGNLLRHIKL	0.993
FGCDVCGAAFTQKGNLLRHIKL	-1.24
FACDQCGAAFTQKGNLLRHIKL	-1.7
FECEICGRNFTQKGNLLRHIKL	-1.35
FRCNVCGADFTQKGNLLRHIKL	-0.319
FCCDQCGAQFTQKGNLLRHIKL	-1.82

Sequence	log2 fold change of degron read counts
FQCDICGALFTQKGNLLRHIKL	-1.72
LVCNQCGFHCTQKGNLLRHIKL	-0.233
FLCEICGHSFTQKGNLLRHIKL	-2.1
FYCNQCGHLFTQKGNLLRHIKL	0.902
FNCEICGATFTQKGNLLRHIKL	-1.63
FKCSVCGHPFTQKGNLLRHIKL	0.273
FHCDVCGAMFTQKGNLLRHIKL	-1.26
LNCNQCGFICTQKGNLLRHIKL	1.15
FQCNQCGAWFTQKGNLLRHIKL	-0.931
FNCPQCGAWFTQKGNLLRHIKL	-0.107
FWCNQCGRIFTQKGNLLRHIKL	2.04
FQCEICGRSFTQKGNLLRHIKL	-1.18
FKCEICGADFTQKGNLLRHIKL	-3.6
FQCNQCGAAFTQKGNLLRHIKL	-1.7
FMCDICGAYFTQKGNLLRHIKL	-0.652
FFCNICGAFFTQKGNLLRHIKL	1.19
